Among the data in PubChem BioAssay AID488969 (Vanderbilt High Throughput Screening Facility, 2010) are z-score values, retold here.

The full ranking holds about 110,000 compounds; the median of “z-score” is about -0.1, and the highest 2% start at about 2. The list shows a part of the results. Calls of active or inactive are those of the source.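 The calls were made as follows: active = z-score in the third read window above 3 or below -3; inactive = the rest.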

In this assay the target is Metabotropic glutamate receptor 8 (Rattus norvegicus) (UniProt P70579). Put plainly: rat mGluR8 modulators via GIRK flux, primary screen, cell-based, thallium flux, HTS (AID 488969). As to conditions: HEK293 rat mGluR8, GIRK (G protein-gated inwardly rectifying potassium channel) thallium flux, FluoZin2; at 10 µM; stronger effect = higher value; submaximal glutamate (EC20) added with thallium.
Chain of UniProt P70579 (P70579 whole entry, looked up): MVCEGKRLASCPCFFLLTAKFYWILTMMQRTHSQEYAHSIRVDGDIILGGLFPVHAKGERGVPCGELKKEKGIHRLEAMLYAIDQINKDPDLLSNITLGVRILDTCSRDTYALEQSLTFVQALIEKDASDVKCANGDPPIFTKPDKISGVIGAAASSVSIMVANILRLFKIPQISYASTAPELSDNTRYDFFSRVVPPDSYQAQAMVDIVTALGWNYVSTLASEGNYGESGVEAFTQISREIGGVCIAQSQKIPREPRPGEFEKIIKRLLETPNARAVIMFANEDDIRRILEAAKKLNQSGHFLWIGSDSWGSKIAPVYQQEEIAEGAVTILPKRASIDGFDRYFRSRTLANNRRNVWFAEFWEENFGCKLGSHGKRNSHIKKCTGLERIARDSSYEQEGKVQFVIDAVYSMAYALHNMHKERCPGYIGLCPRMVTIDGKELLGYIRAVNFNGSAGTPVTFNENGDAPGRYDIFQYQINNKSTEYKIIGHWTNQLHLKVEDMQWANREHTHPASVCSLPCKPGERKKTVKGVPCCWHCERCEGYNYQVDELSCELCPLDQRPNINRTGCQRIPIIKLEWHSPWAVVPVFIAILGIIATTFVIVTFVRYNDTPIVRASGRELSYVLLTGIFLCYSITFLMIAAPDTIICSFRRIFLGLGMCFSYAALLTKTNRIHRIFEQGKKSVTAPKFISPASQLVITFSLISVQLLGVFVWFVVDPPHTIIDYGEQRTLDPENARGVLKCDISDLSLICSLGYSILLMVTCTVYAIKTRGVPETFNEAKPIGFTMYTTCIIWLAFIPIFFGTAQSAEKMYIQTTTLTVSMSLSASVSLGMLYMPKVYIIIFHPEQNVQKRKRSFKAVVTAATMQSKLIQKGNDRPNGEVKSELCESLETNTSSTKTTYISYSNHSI
`O=C(CSc1nnc(Nc2ccccc2)s1)Nc1cccc(S(=O)(=O)N2CCCCC2)c1` yielded a z-score of -0.673.

The molecule `CC(NC(=S)Nc1ccc(S(=O)(=O)N2CCOCC2)cc1)C1CC2CCC1C2` (stereo not given) returned a z-score of 0.358.

For `CN(CC(=O)O)S(=O)(=O)c1cc(Cl)ccc1Cl`, the z-score was -0.122.

`CCCCC1C2=C(CCCC2=O)OC2=C1C(=O)CCC2`: the z-score was -0.617. The figure for `CCn1cc(Br)c(C(=O)Nc2cccc(SC)c2)n1` is -0.175; for `COCc1cc(=O)n2[nH]c(SCc3ccccc3)nc2n1` it is -0.0885. Then `CC(C)OC(=O)/C(=C\C=C\c1ccccc1)NC(=O)c1ccccc1`, with -0.143; and `COc1cc(C=O)ccc1OS(=O)(=O)c1ccccc1[N+](=O)[O-]`, with -0.429; and `CCOc1ccc(CCNC(=O)C2CCN(c3nnc(-n4cccc4)s3)CC2)cc1`, with -0.269. The figure for `COc1cc(NC(=O)C2CCCCC2)c2ncccc2c1` is -0.248; for `Brc1ccc(Cn2c(-c3cncs3)nc3ccccc32)cc1` it is 0.106; for `Cc1cc(/C=C(\C#N)C(=O)Nc2ccccc2)c(C)n1-c1cccnc1` it is 0.741. For `CCOc1ccc(C(OC(=O)c2ccco2)C(=O)NCc2ccc(C)cc2)cc1` (stereo not given), the z-score was -0.858. Then `[O-]C1=N/[N+](=C/c2ccc(Cl)cc2)CC1`, with 0.265; and `Cc1ccc(S(=O)(=O)Nc2nc(C)c(NC(=O)OCCCl)s2)cc1`, with -0.0861. As to `CSc1nsc(SCC(=O)N2CCc3ccccc32)n1`, the z-score is -0.159. The figure for `COc1ccc2[nH]c(=S)[nH]c2c1` is -1.55; for `O=C(NCc1ccccn1)c1c(O)c2c([nH]c1=O)CCCC2` it is -0.171. Then `Cc1cccc(C(=O)CC(=O)c2cc(Cl)ccc2O)c1`, with active: 4.14. On to `CCOC(=O)c1oc2nc(C(C)C)c3c(c2c1N)CC(C)(C)OC3`, for which the z-score was -1.89. Then `CCOC(=O)NNC1CC(=O)N(c2ccc(OC)cc2)C1=O` (stereo not given), with -0.0998; and `CCn1c(C(C)NC(=O)c2cccs2)n[nH]c1=S` (stereo not given), with 0.205.

For the molecule `CCn1c(=O)cc(OCC(=O)Nc2cccc(C)n2)c2ccccc21`, the z-score was determined as 1.59.

Take `Cc1ccccc1CN(CC(=O)Nc1cccc([N+](=O)[O-])c1)S(=O)(=O)c1ccc(Cl)cc1`: the z-score amounted to 0.0331.

With `Cn1c(=O)cc(SCC(=O)NCCCN2CCOCC2)c2ccc(Cl)cc21`, the z-score was -0.0547.

On to `CCOC(=O)Nc1ccc2c(CN3C(=O)NC(CC)(CC)C3=O)cc(=O)oc2c1`, for which the z-score is -0.179.

`O=c1[nH]c2ccc(S(=O)(=O)N3CCN(c4ccccc4)CC3)cc2[nH]c1=O` registered a z-score of -0.184. The figure for `COc1ccc(NC2(c3ccc(Cl)cc3)C(=O)c3ccccc3C2=O)cc1` is -0.308; for `Nc1nc(-c2cccnc2)nn1C(=O)Cc1ccccc1` it is 0.104; for `COc1ccc(OC(C)C(=O)N2CC(C)OC(C)C2)cc1` (stereo not given) it is -0.0569. Then `O=C(Oc1ccc2c(c1)OCO2)C12CC3CC(CC(C3)C1)C2`, with -0.302; and `CSc1nc2nccc(-c3ccc(Oc4ccccc4)cc3)n2n1`, with -1.45; and `Cc1cc(NS(=O)(=O)c2ccc(NC(=O)C(C)Oc3ccc(Cl)cc3)cc2)no1` (stereo not given), with -0.415. Then `CC1CC1C(=O)OCC(=O)Nc1ccc(N=Nc2ccccc2)cc1` (stereo not given), with 0.616. `COC(=O)c1sc2ccc(C)cc2c1C(=O)OC` yielded a z-score of -1.28. For `C#CCn1c(=NC(=O)c2cc(-c3cccs3)nc3ccccc23)sc2cc(S(N)(=O)=O)ccc21`, the z-score is -0.48. Then `CCN(CC)C(=O)CSc1nnc(-c2cc(OC)cc(OC)c2)o1`, with -0.831.

In the case of `Cn1c(C(C#N)C2=C(Cl)C(=O)N(c3ccccc3)C2=O)nc2ccccc21` (stereo not given), the z-score is -1.07. The figure for `Cc1ccc(C(=O)CSc2nnc(-c3ccccc3)o2)cc1` is 0.068; for `CN1CCN(CCCNC(=O)Nc2cccc3ccccc23)CC1` it is -0.83; for `Cn1c(=O)c2c(nc(N/N=C/c3ccc(OC(=O)c4ccco4)cc3)n2Cc2ccc(F)cc2)n(C)c1=O` it is 0.155. As for `O=C(Nc1cccs1)Nc1c(F)c(F)cc(F)c1F`, the z-score came out at 0.433. Then `Cc1cc(NC(=O)C(C)C)ncc1NC(=O)Cc1ccccc1`, with 1.07; and `Cc1ccc(-n2c(SCC(=O)Nc3ncc(Cl)cc3Cl)nc3ccccc32)cc1`, with 0.924; and `O=C(CSCC(=O)N1CCOCC1)Nc1nc(-c2ccc3c(c2)OCO3)cs1`, with 2.

In turn, `O=C1Nc2ccc([N+](=O)[O-])cc2C1(O)N1CCCCC1` (stereo not given) displayed a z-score of -0.153.

`Cc1ccc(/C=C2\SC(=S)N(c3c(C)n(C)n(-c4ccccc4)c3=O)C2=O)cc1` showed a z-score of -0.188. `O=C(CS(=O)CC(=O)N(c1ccccc1)C(C(=O)NC1CCCC1)c1cccs1)Nc1ccc(F)cc1` (stereo not given) registered a z-score of -0.139. On to `CCn1nc(C(=O)Nc2ccc(C)c(C)c2)c(Cl)c1Cl`, for which the z-score was -0.2. Molecule `CCN(CC)CCCN=Cc1c(O)n(Cc2ccccc2)c(=O)c2ccccc12` registered a z-score of 1.96. Turning to `O=c1c2ccccc2c(C=NCc2ccccn2)c(O)n1-c1ccccc1`, the z-score is active: 9.73.

Molecule `O=C(c1cc2sccc2n1Cc1ccc(F)cc1)N1CCN(c2nc3ccccc3s2)CC1` gave a z-score of 0.851. The figure for `Cn1nnnc1SCC(=O)Nc1ccc(Oc2ccccc2)cc1` is 0.389. Consider `CCN1CCN(c2c(Cl)cccc2NC(=O)c2ccc(Br)o2)CC1`, for which the z-score is 0.378.

In the case of `C=CCn1c(SCc2ccc(F)cc2)nc2c1c(=O)[nH]c(=O)n2C`, the z-score worked out at 0.000124. Then `O=C(NC1(C(F)(F)F)NC(=O)N(Cc2ccccc2)C1=O)c1cccnc1` (stereo not given), with -0.773. `Cn1c(CO)cnc1S(=O)(=O)Cc1ccc([N+](=O)[O-])cc1` gave a z-score of -0.151.

Consider `CCOC(=O)c1sc(NC(=O)C(CC)Sc2nc3ccccc3[nH]2)nc1C` (stereo not given), for which the z-score is -0.155. In the case of `CCS(=O)(=O)NCC(c1cccnc1)N1CCN(c2ccccc2)CC1` (stereo not given), the z-score was 1.7. Turning to `O=C(Nc1ccccc1F)C1CCN(C(=O)Cc2ccccc2)CC1`, the z-score was -0.0173.

With `CC/C(C)=N/Nc1ccc(S(=O)(=O)N2CCCC2)cc1[N+](=O)[O-]`, the z-score is -0.434. Then `Cc1ccc(N2C(=N)/C(=C3/Nc4ccccc4S3)C(c3ccccc3)C2=O)cc1` (stereo not given), with -0.472; and `CN(C)C(/C=C/Nc1ccc(F)cc1F)=C(C#N)C#N`, with 0.0645.

In the case of `O=C(C1CCCO1)N1CCN(C(=S)Nc2ccccc2)CC1` (stereo not given), the z-score was -0.0569.

Consider `Cc1nn(C(=O)CNS(=O)(=O)c2ccccc2)c(C)c1Sc1ccc(Cl)cc1`, for which the z-score was -0.299. Consider `CC(C)(C)OC(=O)N/N=C/c1ccc(N2CCOCC2)s1`, for which the z-score is -0.551. In the case of `COc1cc(CC(=O)Nc2ccc3c(c2)CCC3)cc(OC)c1OC`, the z-score is -0.196. The molecule `Cc1ccc(C)c(SCC(=O)Nc2nnc(-c3ccccc3)o2)c1` came in with a z-score of 1.49. Then `CCC(C)NC(=O)CS(=O)Cc1nc(-c2ccccc2C)oc1C` (stereo not given), with -0.0162; and `COc1cc(C(=O)Oc2ccc3c(c2)OCC3=O)cc(OC)c1OC`, with -0.369.
